Source: the supplement of paper PMC3334620
Over roughly 33,000 sequences, “E-score (-0.5 to 0.5)” has its median near -0.053; the highest 2% begin near 0.37. The list shows a part of the results.

Target: Hap1 (UniProt P0CE41)
Assay: PBM E-score (8-mer binding enrichment) (E-score (-0.5 to 0.5)); higher = stronger / more preferred TF binding; most listed sequences are background and not binding sites
Settings: protein concentration: 200 nM; construct: GST-DNA-binding domain
Outline: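 Full-length yeast transcription factors or their DNA-binding domains, GST-tagged and expressed with PURExpress, were applied at about 100-200 nM to universal all-10-mer Agilent arrays. These arrays had been made double-stranded by primer extension on fresh or once-stripped slides. Detection used fluorescent anti-GST, normalisation used masliner, and E-scores for ungapped eight-base words pooled with reverse complements came from the Universal PBM Analysis Suite.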

Sequence of UniProt P0CE41 (P0CE41 whole entry): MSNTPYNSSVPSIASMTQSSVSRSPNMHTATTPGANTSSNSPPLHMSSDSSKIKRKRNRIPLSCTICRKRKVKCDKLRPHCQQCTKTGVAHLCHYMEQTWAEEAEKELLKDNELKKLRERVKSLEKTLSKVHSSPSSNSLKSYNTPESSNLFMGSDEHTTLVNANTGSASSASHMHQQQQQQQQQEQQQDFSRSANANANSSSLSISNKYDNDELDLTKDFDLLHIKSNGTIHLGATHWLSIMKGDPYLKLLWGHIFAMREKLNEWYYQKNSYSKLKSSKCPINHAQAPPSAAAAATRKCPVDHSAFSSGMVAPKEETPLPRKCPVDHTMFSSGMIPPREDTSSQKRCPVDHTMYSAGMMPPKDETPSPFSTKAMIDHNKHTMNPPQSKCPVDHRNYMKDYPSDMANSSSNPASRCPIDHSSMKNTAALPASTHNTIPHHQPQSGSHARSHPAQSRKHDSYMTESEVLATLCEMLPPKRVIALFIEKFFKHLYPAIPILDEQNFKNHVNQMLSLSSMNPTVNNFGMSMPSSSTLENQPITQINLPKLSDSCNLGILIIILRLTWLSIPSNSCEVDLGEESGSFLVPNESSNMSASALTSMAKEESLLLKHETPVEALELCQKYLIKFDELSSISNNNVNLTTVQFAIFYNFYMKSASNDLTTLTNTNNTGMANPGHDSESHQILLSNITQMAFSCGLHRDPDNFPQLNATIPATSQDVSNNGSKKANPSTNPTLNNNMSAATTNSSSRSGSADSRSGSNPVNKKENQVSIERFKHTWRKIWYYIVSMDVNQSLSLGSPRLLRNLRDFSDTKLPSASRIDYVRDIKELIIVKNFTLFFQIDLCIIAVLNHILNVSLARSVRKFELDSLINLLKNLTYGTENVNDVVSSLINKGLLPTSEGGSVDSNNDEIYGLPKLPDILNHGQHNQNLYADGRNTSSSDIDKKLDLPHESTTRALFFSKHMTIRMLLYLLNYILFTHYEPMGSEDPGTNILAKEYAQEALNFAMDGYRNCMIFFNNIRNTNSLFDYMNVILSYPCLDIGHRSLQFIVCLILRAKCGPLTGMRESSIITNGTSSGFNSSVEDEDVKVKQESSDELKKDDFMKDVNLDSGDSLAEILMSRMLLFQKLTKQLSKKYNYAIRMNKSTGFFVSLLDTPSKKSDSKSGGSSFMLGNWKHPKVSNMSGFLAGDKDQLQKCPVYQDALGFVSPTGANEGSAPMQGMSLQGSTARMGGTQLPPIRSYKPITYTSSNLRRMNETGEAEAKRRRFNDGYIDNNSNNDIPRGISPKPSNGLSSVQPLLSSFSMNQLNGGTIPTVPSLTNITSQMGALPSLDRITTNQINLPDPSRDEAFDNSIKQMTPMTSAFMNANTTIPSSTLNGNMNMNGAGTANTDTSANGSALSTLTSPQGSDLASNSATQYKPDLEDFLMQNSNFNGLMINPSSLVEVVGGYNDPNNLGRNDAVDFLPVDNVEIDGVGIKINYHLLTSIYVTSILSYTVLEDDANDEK

Going from AGGAGTCA to CGTTCGAG, the “PBM E-score” value rises from -0.179 to -0.141.

Compared with ACCACGGC, GCTGTGAC is lower in “PBM E-score” value: 0.058 for the first, -0.223 for the second.

Going from ACGACTAC to CTATAGGA, the “PBM E-score” value rises from -0.322 to -0.132.

First: TCTGTTCA
Second: ATCCTCCA
The “PBM E-score” value of the first is lower: -0.263 for the first, -0.224 for the second.

Compared with CAACAGTG, ACACCCCA is lower in “PBM E-score” value: 0.00153 for the first, -0.251 for the second.

First: CGATTGAG
Second: ACTATGAG
The “PBM E-score” value of the first is higher: 0.011 for the first, -0.0992 for the second.

Going from GAATTATA to CTACTACA, the “PBM E-score” value falls from 0.0684 to -0.0229.

Compared with ATAAAAGG, GAAATTTA is lower in “PBM E-score” value: 0.0186 for the first, -0.0236 for the second.

Compared with GGAAAGAC, AGTCCAAG is lower in “PBM E-score” value: 0.043 for the first, -0.404 for the second.

First: TCTATTAA
Second: GCAATACC
The “PBM E-score” value of the first is lower: -0.153 for the first, 0.129 for the second.

Going from AGGACAAC to GCGACCTA, the “PBM E-score” value rises from -0.109 to -0.0619.

First: CCTAAGCG
Second: GCTGGTGA
The “PBM E-score” value of the first is higher: -0.0345 for the first, -0.112 for the second.

Compared with CCGTGCCA, CACGAAAC is lower in “PBM E-score” value: -0.0065 for the first, -0.0981 for the second.

Compared with GGCAAAAC, CCTCCAAC is lower in “PBM E-score” value: 0.0215 for the first, -0.0637 for the second.

First: ACGATATA
Second: CACAGAAG
The “PBM E-score” value of the first is higher: -0.0495 for the first, -0.247 for the second.

Going from TCATCCGA to TAGCAGCA, the “PBM E-score” value falls from 0.368 to -0.239.

Going from CCGACGCG to ACATGCTC, the “PBM E-score” value falls from 0.337 to -0.0584.

Going from ATATAAGC to TAATGGGA, the “PBM E-score” value falls from 0.0118 to -0.212.

Going from AACGCCCT to ACGCTCGG, the “PBM E-score” value rises from -0.167 to 0.375.

Compared with CGGAGGAG, CAACAGCG is lower in “PBM E-score” value: 0.284 for the first, -0.0733 for the second.

Going from CAAATCGC to GAGGGACC, the “PBM E-score” value falls from -0.0116 to -0.172.

First: CTTAAGTC
Second: CAAGGAGA
The “PBM E-score” value of the first is higher: 0.231 for the first, -0.0638 for the second.

Going from AAAACGAT to CCGAACCG, the “PBM E-score” value rises from -0.0918 to 0.363.

First: AGCGACAT
Second: ATTATACA
The “PBM E-score” value of the first is lower: -0.154 for the first, -0.0599 for the second.

Compared with GGATGCAC, GCCGGCAC is higher in “PBM E-score” value: -0.0496 for the first, 0.327 for the second.

Compared with AGTTGGTC, ATTCGAAA is higher in “PBM E-score” value: -0.068 for the first, 0.0308 for the second.

Going from GGGGCCAC to ATTACAGG, the “PBM E-score” value rises from 0.103 to 0.16.

Going from ATGACAGA to ACATATAA, the “PBM E-score” value rises from -0.228 to -0.079.

Compared with GTTAGCCA, AACTACGT is higher in “PBM E-score” value: -0.0632 for the first, -0.0565 for the second.

Compared with CTTGCGGA, ATGTGTGC is lower in “PBM E-score” value: 0.244 for the first, -0.104 for the second.

Going from CATAACGA to TAGTGCAA, the “PBM E-score” value falls from -0.0283 to -0.118.

Compared with CGCAATAA, ATCTAAGA is lower in “PBM E-score” value: 0.242 for the first, -0.182 for the second.

First: ACGTAACA
Second: GGACCGAA
The “PBM E-score” value of the first is lower: -0.237 for the first, 0.338 for the second.

Going from AAGGGAAC to ACGGCCGT, the “PBM E-score” value rises from -0.155 to 0.373.

First: CTGGTAGC
Second: CATAGTCG
The “PBM E-score” value of the first is lower: -0.23 for the first, -0.0973 for the second.

Compared with CGTATTGA, AAGAATGC is higher in “PBM E-score” value: -0.111 for the first, 0.0241 for the second.

Going from ACCCTCCG to ACCGGACG, the “PBM E-score” value rises from 0.2 to 0.421.

Going from GTGGTAAC to AGCGCTTG, the “PBM E-score” value falls from 0.0741 to 0.00543.

Compared with CGTCAAAA, ATATGGAA is lower in “PBM E-score” value: 0.0461 for the first, -0.0148 for the second.

Going from CCTCACAA to AATCTCGT, the “PBM E-score” value rises from -0.0933 to 0.0299.

Going from TAAAAATA to ATGAAGTA, the “PBM E-score” value falls from -0.0678 to -0.175.

Compared with AGTTCAGC, CGATTGGA is higher in “PBM E-score” value: -0.188 for the first, -0.0771 for the second.

Going from GTCGTCAA to GAATATAC, the “PBM E-score” value rises from -0.144 to 0.168.

Going from AACAACAG to CAAGGACA, the “PBM E-score” value falls from -0.0686 to -0.33.

First: AATCGACG
Second: ATATCTTG
The “PBM E-score” value of the first is higher: -0.0455 for the first, -0.173 for the second.

First: ACTATAAA
Second: GGGCACTA
The “PBM E-score” value of the first is higher: 0.0867 for the first, -0.0489 for the second.

Compared with ACAGAAAG, AGAGTGTC is higher in “PBM E-score” value: -0.246 for the first, -0.0226 for the second.

First: ATATGCAT
Second: AGCACATG
The “PBM E-score” value of the first is higher: 0.0135 for the first, -0.0601 for the second.

Compared with CAGGTCCC, GTATAGTA is higher in “PBM E-score” value: -0.0239 for the first, 0.11 for the second.

Going from CTCAAAGA to GGCGGTGA, the “PBM E-score” value rises from -0.0984 to -0.0339.

First: ACCTTTAC
Second: TAACTTAA
The “PBM E-score” value of the first is lower: -0.0295 for the first, 0.0501 for the second.

First: CGCGCCCA
Second: TATCAACA
The “PBM E-score” value of the first is higher: 0.113 for the first, -0.196 for the second.

Going from ACGGCTAA to GCAGTCGA, the “PBM E-score” value falls from -0.0732 to -0.088.

Compared with AACAGTGC, GAGACAAA is higher in “PBM E-score” value: -0.162 for the first, -0.046 for the second.

Going from CTTAATAA to GAAATAAC, the “PBM E-score” value rises from 0.187 to 0.221.

Going from CACGAGTG to AAGTCTAG, the “PBM E-score” value rises from -0.259 to -0.155.

Compared with ACCATGAC, ACACAGTA is lower in “PBM E-score” value: -0.0287 for the first, -0.288 for the second.

Going from ATTTGACC to GCAAGGAC, the “PBM E-score” value falls from -0.00252 to -0.115.

Compared with GCACCTGA, AAGACAAC is higher in “PBM E-score” value: -0.245 for the first, 0.0544 for the second.

Compared with GCGGAAAA, AATCTAAA is lower in “PBM E-score” value: 0.286 for the first, 0.0392 for the second.

Going from CTGATATC to AGATGAGA, the “PBM E-score” value falls from 0.26 to -0.0579.

Going from ACCCTGAT to AACGATGG, the “PBM E-score” value falls from -0.139 to -0.152.

Going from ACAGAACT to ACTTTGAA, the “PBM E-score” value rises from -0.196 to -0.108.

Compared with GTCGAACA, CAGTAGTC is higher in “PBM E-score” value: -0.165 for the first, -0.138 for the second.

Compared with CACCGCTC, ATCACCAC is lower in “PBM E-score” value: 0.0982 for the first, 0.0204 for the second.

First: ATAAGGGC
Second: ACTTAGCG
The “PBM E-score” value of the first is higher: 0.203 for the first, 0.0778 for the second.

First: AGGCAAAC
Second: GTGCACGA
The “PBM E-score” value of the first is higher: -0.239 for the first, -0.252 for the second.

First: CAGAGAGG
Second: GGAGTGAC
The “PBM E-score” value of the first is lower: -0.228 for the first, 0.0168 for the second.

First: CCTTCTCG
Second: ATGATATG
The “PBM E-score” value of the first is lower: -0.0912 for the first, 0.0492 for the second.

Compared with AGAAGGGG, CATCCTTA is lower in “PBM E-score” value: -0.267 for the first, -0.362 for the second.

Going from CCTGCGCG to CCGCCTCA, the “PBM E-score” value rises from -0.0141 to 0.173.

Compared with ATTGACTA, CCAGGGAG is lower in “PBM E-score” value: -0.199 for the first, -0.436 for the second.

Compared with CTCTTGGA, GAAATCTC is higher in “PBM E-score” value: -0.237 for the first, 0.167 for the second.

Going from GGCCGTCA to ATTTGATG, the “PBM E-score” value rises from 0.074 to 0.078.

Compared with ACGCTCTG, CCACCATA is higher in “PBM E-score” value: -0.28 for the first, -0.0659 for the second.

Compared with GTCTCCCA, ACATTCAC is higher in “PBM E-score” value: -0.159 for the first, -0.0901 for the second.

First: ACGTTAAC
Second: CGAAGATA
The “PBM E-score” value of the first is lower: -0.0133 for the first, 0.199 for the second.

Compared with ATGGGTGC, CTTCGTGA is lower in “PBM E-score” value: -0.124 for the first, -0.258 for the second.

First: AGGAGTCC
Second: AGGATCTC
The “PBM E-score” value of the first is higher: -0.0161 for the first, -0.0515 for the second.

Going from AAACACTC to CTGCACAA, the “PBM E-score” value falls from -0.0701 to -0.193.

Compared with CAACCGAC, AGCACACA is lower in “PBM E-score” value: 0.136 for the first, -0.298 for the second.

First: TCTGCACA
Second: GACTGTTA
The “PBM E-score” value of the first is higher: -0.11 for the first, -0.287 for the second.

Compared with CTGTTCCA, AAGCAGGC is higher in “PBM E-score” value: -0.331 for the first, -0.172 for the second.

Compared with ATCATCCG, GACGGCCC is lower in “PBM E-score” value: 0.339 for the first, 0.0353 for the second.

Compared with ACCCGGCT, TCGGCACA is lower in “PBM E-score” value: 0.28 for the first, 0.279 for the second.

First: CCGAGTTA
Second: AAGGGTAA
The “PBM E-score” value of the first is higher: 0.271 for the first, -0.142 for the second.
